# Laboratory results published in the supplement of paper PMC8728848.
# The list shows a part of the results.
# How the values were obtained:
# Experiment in all cases: glycan array binding signal (z-score within array); higher = stronger binding
# Settings in all cases: glycan notation: IUPAC condensed, linker removed
# [1] = biological target: Fuc(a1-2)Gal(b1-4)GlcNAc(b1-3)Gal(b1-4)GlcNAc(b1-3)Gal(b1-4)GlcNAc
# Method in brief: (§1)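 The binding signal is a Z-score computed within each array. Data were drawn from 3228 arrays in the Consortium for Functional Glycomics database, restricted to those with a known protein sequence. Scores were averaged over arrays of the same protein sequence at different concentrations or buffers, and over linkers, and negative values can be taken as non-binding.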
# [2] = biological target: Fuc(a1-2)Gal(b1-4)GlcNAc(b1-3)GalNAc
# Method in brief: as §1
# [3] = biological target: Fuc(a1-2)Gal(b1-4)GlcNAc(b1-3)[Fuc(a1-2)Gal(b1-4)GlcNAc(b1-6)]GalNAc
# Method in brief: as §1
# [4] = biological target: Fuc(a1-2)Gal(b1-4)GlcNAc(b1-3)[Fuc(a1-3)[Gal(b1-4)]GlcNAc(b1-6)]Gal(b1-4)Glc
# Method in brief: as §1
# [5] = biological target: Fuc(a1-2)Gal(b1-4)GlcNAc(b1-6)GalNAc
# Method in brief: as §1
# [6] = biological target: Fuc(a1-2)Gal(b1-4)GlcNAc6S
# Method in brief: as §1
# [7] = biological target: Fuc(a1-2)Gal(b1-4)[Fuc(a1-3)]GlcNAc
# Method in brief: as §1
# [8] = biological target: Fuc(a1-2)Gal(b1-4)[Fuc(a1-3)]GlcNAc(b1-2)Man(a1-3)[Fuc(a1-2)Gal(b1-4)[Fuc(a1-3)]GlcNAc(b1-2)Man(a1-6)]Man(b1-4)GlcNAc(b1-4)[Fuc(a1-6)]GlcNAc
# Method in brief: as §1
# [9] = biological target: Fuc(a1-2)Gal(b1-4)[Fuc(a1-3)]GlcNAc(b1-2)[Fuc(a1-2)Gal(b1-4)[Fuc(a1-3)]GlcNAc(b1-4)]Man(a1-3)[Fuc(a1-2)Gal(b1-4)[Fuc(a1-3)]GlcNAc(b1-2)Man(a1-6)]Man(b1-4)GlcNAc(b1-4)GlcNAc
# Method in brief: as §1
# [10] = biological target: Fuc(a1-2)Gal(b1-4)[Fuc(a1-3)]GlcNAc(b1-3)Gal(b1-4)[Fuc(a1-3)]GlcNAc
# Method in brief: as §1
# [11] = biological target: Fuc(a1-2)Gal(b1-4)[Fuc(a1-3)]GlcNAc(b1-3)Gal(b1-4)[Fuc(a1-3)]GlcNAc(b1-3)Gal(b1-4)[Fuc(a1-3)]GlcNAc
# Method in brief: as §1
# [12] = biological target: Fuc(a1-2)Gal(b1-4)[Fuc(a1-3)]GlcNAc(b1-3)GalNAc
# Method in brief: as §1
# [13] = biological target: Fuc(a1-2)Gal(b1-4)[Fuc(a1-3)]GlcNAc(b1-3)[Neu5Ac(a2-6)Gal(b1-4)GlcNAc(b1-6)]Gal(b1-4)Glc
# Method in brief: as §1
# [14] = biological target: Fuc(a1-2)Gal3S(b1-4)GlcNAc
# Method in brief: as §1
# [15] = biological target: Fuc(a1-2)Gal6S(b1-3)GlcNAc
# Method in brief: as §1
# [16] = biological target: Fuc(a1-2)Gal6S(b1-3)GlcNAc6S
# Method in brief: as §1
# [17] = biological target: Fuc(a1-2)Gal6S(b1-4)Glc
# Method in brief: as §1
# [18] = biological target: Fuc(a1-2)Gal6S(b1-4)Glc6S
# Method in brief: as §1
# [19] = biological target: Fuc(a1-2)[Gal(a1-3)]Gal
# Method in brief: as §1
# [20] = biological target: Fuc(a1-2)[Gal(a1-3)]Gal(b1-3)GalNAc
# Method in brief: as §1
# [21] = biological target: Fuc(a1-2)[Gal(a1-3)]Gal(b1-3)GalNAc(b1-3)Gal(a1-4)Gal(b1-4)Glc
# Method in brief: as §1
# [22] = biological target: Fuc(a1-2)[Gal(a1-3)]Gal(b1-3)GlcNAc
# Method in brief: as §1
# [23] = biological target: Fuc(a1-2)[Gal(a1-3)]Gal(b1-3)GlcNAc(b1-2)Man(a1-3)[Fuc(a1-2)[Gal(a1-3)]Gal(b1-3)GlcNAc(b1-2)Man(a1-6)]Man(b1-4)GlcNAc(b1-4)GlcNAc
# Method in brief: as §1
# [24] = biological target: Fuc(a1-2)[Gal(a1-3)]Gal(b1-3)GlcNAc(b1-2)Man(a1-3)[Fuc(a1-2)[Gal(a1-3)]Gal(b1-3)GlcNAc(b1-2)Man(a1-6)]Man(b1-4)GlcNAc(b1-4)[Fuc(a1-6)]GlcNAc
# Method in brief: as §1
# [25] = biological target: Fuc(a1-2)[Gal(a1-3)]Gal(b1-3)GlcNAc(b1-3)GalNAc
# Method in brief: as §1
# [26] = biological target: Fuc(a1-2)[Gal(a1-3)]Gal(b1-3)GlcNAc(b1-6)GalNAc
# Method in brief: as §1
# [27] = biological target: Fuc(a1-2)[Gal(a1-3)]Gal(b1-4)Glc
# Method in brief: as §1
# [28] = biological target: Fuc(a1-2)[Gal(a1-3)]Gal(b1-4)GlcNAc
# Method in brief: as §1
# [29] = biological target: Fuc(a1-2)[Gal(a1-3)]Gal(b1-4)GlcNAc(b1-2)Man
# Method in brief: as §1
# [30] = biological target: Fuc(a1-2)[Gal(a1-3)]Gal(b1-4)GlcNAc(b1-2)Man(a1-3)[Fuc(a1-2)[Gal(a1-3)]Gal(b1-4)GlcNAc(b1-2)Man(a1-6)]Man(b1-4)GlcNAc(b1-4)GlcNAc
# Method in brief: as §1
# [31] = biological target: Fuc(a1-2)[Gal(a1-3)]Gal(b1-4)GlcNAc(b1-2)Man(a1-3)[Fuc(a1-2)[Gal(a1-3)]Gal(b1-4)GlcNAc(b1-2)Man(a1-6)]Man(b1-4)GlcNAc(b1-4)[Fuc(a1-6)]GlcNAc
# Method in brief: as §1
# [32] = biological target: Fuc(a1-2)[Gal(a1-3)]Gal(b1-4)GlcNAc(b1-3)GalNAc
# Method in brief: as §1
# [33] = biological target: Fuc(a1-2)[Gal(a1-3)]Gal(b1-4)GlcNAc(b1-3)[Fuc(a1-2)[Gal(a1-3)]Gal(b1-4)GlcNAc(b1-6)]GalNAc
# Method in brief: as §1
# [34] = biological target: Fuc(a1-2)[Gal(a1-3)]Gal(b1-4)GlcNAc(b1-6)GalNAc
# Method in brief: as §1
# [35] = biological target: Fuc(a1-2)[Gal(a1-3)]Gal(b1-4)[Fuc(a1-3)]Glc
# Method in brief: as §1
# [36] = biological target: Fuc(a1-2)[Gal(a1-3)]Gal(b1-4)[Fuc(a1-3)]GlcNAc
# Method in brief: as §1
# [37] = biological target: Fuc(a1-2)[Gal(a1-3)]Gal(b1-4)[Fuc(a1-3)]GlcNAc(b1-3)GalNAc
# Method in brief: as §1
# [38] = biological target: Fuc(a1-2)[Gal(a1-4)]Gal(b1-4)GlcNAc
# Method in brief: as §1
# [39] = biological target: Fuc(a1-2)[GalNAc(a1-3)]Gal
# Method in brief: as §1
# [40] = biological target: Fuc(a1-2)[GalNAc(a1-3)]Gal(b1-3)GalNAc(a1-3)[Fuc(a1-2)]Gal(b1-4)GlcNAc
# Method in brief: as §1
# [41] = biological target: Fuc(a1-2)[GalNAc(a1-3)]Gal(b1-3)GalNAc(b1-3)Gal(a1-4)Gal(b1-4)Glc
# Method in brief: as §1
# [42] = biological target: Fuc(a1-2)[GalNAc(a1-3)]Gal(b1-3)GlcNAc
# Method in brief: as §1
# [43] = biological target: Fuc(a1-2)[GalNAc(a1-3)]Gal(b1-3)GlcNAc(b1-2)Man(a1-3)[Fuc(a1-2)[GalNAc(a1-3)]Gal(b1-3)GlcNAc(b1-2)Man(a1-6)]Man(b1-4)GlcNAc(b1-4)GlcNAc
# Method in brief: as §1
# [44] = biological target: Fuc(a1-2)[GalNAc(a1-3)]Gal(b1-3)GlcNAc(b1-2)Man(a1-3)[Fuc(a1-2)[GalNAc(a1-3)]Gal(b1-3)GlcNAc(b1-2)Man(a1-6)]Man(b1-4)GlcNAc(b1-4)[Fuc(a1-6)]GlcNAc
# Method in brief: as §1
# [45] = biological target: Fuc(a1-2)[GalNAc(a1-3)]Gal(b1-3)GlcNAc(b1-3)GalNAc
# Method in brief: as §1
binder,measurement,setting,value
GNL (Galanthus nivalis) (protein) MGHHHHHHHHYGTLENGHWLMVGMSIFSKDRTVELRMQDDGKLAIYYNDHCAWQSTAQQVNNAKGAVMQGDGNFCIYDKNGKATWHTNTAAPSGDSHTFVSVQDDGNLVLYKNNGATPIWSSKSNK,glycan array binding signal (z-score),[1],-0.239
same,glycan array binding signal (z-score),[2],-0.168
same,glycan array binding signal (z-score),[3],-0.207
same,glycan array binding signal (z-score),[4],-0.268
same,glycan array binding signal (z-score),[5],-0.115
same,glycan array binding signal (z-score),[6],-0.23
same,glycan array binding signal (z-score),[7],-0.248
same,glycan array binding signal (z-score),[8],-0.188
same,glycan array binding signal (z-score),[9],-0.214
same,glycan array binding signal (z-score),[10],-0.272
same,glycan array binding signal (z-score),[11],-0.194
same,glycan array binding signal (z-score),[12],-0.137
same,glycan array binding signal (z-score),[13],-0.236
same,glycan array binding signal (z-score),[14],-0.253
same,glycan array binding signal (z-score),[15],-0.243
same,glycan array binding signal (z-score),[16],-0.071
same,glycan array binding signal (z-score),[17],-0.191
same,glycan array binding signal (z-score),[18],-0.251
same,glycan array binding signal (z-score),[19],-0.222
same,glycan array binding signal (z-score),[20],-0.187
same,glycan array binding signal (z-score),[21],-0.172
same,glycan array binding signal (z-score),[22],-0.296
same,glycan array binding signal (z-score),[23],1.83
same,glycan array binding signal (z-score),[24],-0.17
same,glycan array binding signal (z-score),[25],-0.304
same,glycan array binding signal (z-score),[26],-0.174
same,glycan array binding signal (z-score),[27],-0.222
same,glycan array binding signal (z-score),[28],-0.187
same,glycan array binding signal (z-score),[29],-0.241
same,glycan array binding signal (z-score),[30],-0.068
same,glycan array binding signal (z-score),[31],-0.188
same,glycan array binding signal (z-score),[32],-0.156
same,glycan array binding signal (z-score),[33],-0.174
same,glycan array binding signal (z-score),[34],-0.187
same,glycan array binding signal (z-score),[35],-0.26
same,glycan array binding signal (z-score),[36],-0.264
same,glycan array binding signal (z-score),[37],-0.209
same,glycan array binding signal (z-score),[38],-0.238
same,glycan array binding signal (z-score),[39],-0.232
same,glycan array binding signal (z-score),[40],-0.284
same,glycan array binding signal (z-score),[41],-0.228
same,glycan array binding signal (z-score),[42],-0.249
same,glycan array binding signal (z-score),[43],0.948
same,glycan array binding signal (z-score),[44],0.142
same,glycan array binding signal (z-score),[45],-0.218
